First the molecules themselves.
B1: LINE1-mini (parent)
chain: GGCAGAGCUCAACACAGCGUGGCAAAGUGGCUGUGGCUAGACUGCC

The source gives no read counts; variants with many changes may rest on few reads.

The data set covers variants of B1. Put plainly: self-cleavage, relative activity (ratio to wild type); higher = more cleavage; in vitro, sequencing; the parent is a self-cleaving ribozyme.
Regarding G5A A14C C15A A16U C31U A41G, the self-cleavage was found to be 0.
Turning to A26U A41U U43A, the self-cleavage worked out at 0.41.
The value for A4U G30U A41G was 0.03.
Take G2U C3A A4C G27U G30U U32C C42A C45A: the self-cleavage came out at 0.04.
Then U9A A25G C37G A41U C42A, with 0; and U9A A26C C31U G40U A41C, with 0.
G2A C8U U9A A16U: the self-cleavage came out at 0.69.
In the case of G27A U38G C46A, the self-cleavage was found to be 0.02.
Then C15G C18A A26U, with 0.02; and C10G U28G G35U C45U, with 0.01.
Then C8G A14C G22U C23A G36A, with 0.02; and A4C G19A U34A A41G, with 0.05; and G27U G40A C45A, with 0.37.
Then A11U A14C G21A A24C G27C G33A, with 0.01.
On to A4G A14U C37A U38G, for which the self-cleavage is 0.02.
Consider A16G G27U U32G, for which the self-cleavage worked out at 0.02.
In the case of C3U G7U G36A, the self-cleavage turned out to be 0.82.
The value for G27U G30C A41C was 0.17; that for C10A C15U A25C G36C U43C was 0.01.
Turning to G7A A24G A39C C42G C45A, the self-cleavage was determined as 0.02.
Turning to G1C C13A G27U U32C, the self-cleavage worked out at 0.07.
In the case of A16C G29C G30A G33C, the self-cleavage was determined as 0.06.
For C3A C15U C18A U28A C37G, the self-cleavage was 0.1.
Then G17C C31U C45G, with 0.04; and A16G U28G A41G, with 0.25.
Then G7U G19A C37A, with 0.01.
Then A6G A11C G22A, with 0; and C3U G19U U34C U38C A41C C45A, with 0.03.
Consider C10A A14U A16U, for which the self-cleavage is 0.
Regarding A26U U38A A39C, the self-cleavage turned out to be 1.09.
In the case of C3A G5C C8G, the self-cleavage amounted to 0.06.
On to G19A G22C U28C, for which the self-cleavage is 0.29.
The value for G7A C10A G29C was 0.02.
Then G36C A39U G40U, with 0.15.
U9G U20C G33A: the self-cleavage worked out at 0.
As for C15U C31G U38A, the self-cleavage was found to be 0.17.
Then G5A A14G C37A, with 0.31; and A6C G21U G27C G33C, with 0.01; and C3A G7C C18A U20A G44U, with 0.04.
For C8A A25C G36A, the self-cleavage worked out at 0.56.
The value for C18U G35U G44U was 0.13; that for A11C G27C G30A was 0.06; that for C3U A12C G22C A24U was 0.02.
Then G5C C8G C23U G44C C45U, with 0; and U9G C10U G22C C23A G33A C45G, with 0.02; and A12C C15U A16U G19C G35C C37U, with 0.04.
The value for G7U A11G G22U C23A G27U was 0.02.
C8G G21U G40A G44U: the self-cleavage is 0.22.
Then G7U U9G C15G G33U C42A, with 0.03; and C10G G21C C23U C42U U43A, with 0.
Then G17U G30U A41U U43A, with 0.01.
As for G1C G2U G22A A24G, the self-cleavage turned out to be 0.24.
The value for C13G G19U C37A G40U was 0.02; that for G1C A16G U28C was 0.02.
Then C10A C15A G33C C45A, with 0.01; and G17C G21C C45U, with 2.33; and G1C A11U G17A, with 0.
Consider G5A A6G A25G, for which the self-cleavage is 0.06.
Then C13U C15A G35U, with 0.02; and A6G G22C G33A, with 0.06; and G7A G30A C45A, with 0.12.
A4U A16U A24C C45G: the self-cleavage was 0.01.
Then A14C G29U C31G, with 0.03; and A14U G21A G27U G35U, with 0.11; and C10U G19U C23A G36U G40C A41G, with 0.01.
Take C3A A4U C15G G21U C23G: the self-cleavage amounted to 0.17.
Then U9G U20A G36A, with 0.12.
Then G2C G5U G27A, with 0.02.
Then G2U A26C G29A C31U, with 0.03; and C10A A25U U38C A39U, with 0.03.
With G5C A25U C42G G44U, the self-cleavage was determined as 0.01.
For C13A U20G A26C U28C C37A, the self-cleavage was found to be 0.04.
With A12G A25G A41C, the self-cleavage came to 0.02.
The value for A11U G40A U43G was 0.02; that for C23G A24C G30A A41U C42G was 0.06; that for G1U A12U G17U A26C G27C G33C was 0.03.
The value for G2C C31U G33A was 0.01.
Take A4G A16U G17A U20A: the self-cleavage turned out to be 0.06.
The value for U9C G27U A39U was 0.04.
For U20A C23A G27A C31A, the self-cleavage worked out at 0.44.
Take G19C C42G C45U: the self-cleavage worked out at 0.02.
For the variant A6G C10U C18G G21C A26G G35C, the self-cleavage came to 0.02.
In the case of G1C A14C G36C, the self-cleavage was 0.
On to C15U G19A G30A, for which the self-cleavage was 1.27.
The value for G2A A12C C18U U32G was 0.05.
The value for A14U A24C G35A was 0.22; that for C13A G22A C37A was 0.05.
Then A12U G21A U32A G35C U43C, with 0.02; and G2C C3U G19U, with 0.03; and C3A G7U C10A A41C, with 0.04.
For the variant C8G A14U G19C, the self-cleavage is 0.03.
As to C8G G21A A24G A26U, the self-cleavage turned out to be 0.2.
Consider A14U G29U U34G, for which the self-cleavage was determined as 0.08.
Regarding A14G G30A A41C, the self-cleavage is 0.03.
C3U C13G A26C G30A: the self-cleavage was found to be 0.08.
For the variant G5U U9G G44C, the self-cleavage is 0.04.
For A16G G27C G29U G36A, the self-cleavage turned out to be 0.1.
Then G2A G5C G33U U43A, with 0.15; and G7A A11G G40A, with 0; and C23U U28A C45A, with 0.39.
With C13U C23U U28A, the self-cleavage was 0.05.
As for A4U U9G G21C G22A U32C G33U G35U, the self-cleavage turned out to be 0.08.
For the variant G1U G2U G7A C8A, the self-cleavage was found to be 0.
Then A4C C31A U34G G35U, with 0.01; and G27A U32G U43G, with 0; and G17C C18U G19A G22U, with 0.95.
C8A A12U C13A C42A: the self-cleavage is 0.12.
The value for G1A G19A C23U was 0.1.
Then A16C G35A G36A, with 0.14.
Then U20A C23G U43A, with 0.03.
In the case of G19U U34C U38C, the self-cleavage is 0.09.
Regarding A6C G17C G30A C42U, the self-cleavage came to 0.13.
On to C3G C10A A41U, for which the self-cleavage was 0.06.
Consider U32G G36U C46U, for which the self-cleavage was found to be 0.05.
As to G2C C10A U28A U38C, the self-cleavage came out at 0.02.
As to G2C C31A G40U, the self-cleavage was found to be 0.08.
Consider C8U U20G A24G C31G, for which the self-cleavage amounted to 0.03.
For the variant G21A A25G A26C U32A, the self-cleavage was 0.04.
Then C3U C13A U32C, with 0.14.
As for U9G A11U A12C G44A, the self-cleavage worked out at 0.
For the variant G27A G33C C45U, the self-cleavage worked out at 0.03.
In the case of A6C C18U G22U A26C G29U G30C, the self-cleavage stood at 0.85.
Take C8U C13A G22U G33A: the self-cleavage was found to be 0.02.
The value for U20A G29A G40U G44U was 0.06; that for A4G C8A G19A G27U G36A C45A was 0.44.
Then C3A G27A C45A, with 0.5; and C23U G33U C46A, with 0.04; and C3U A11U G35A, with 0.03.
The value for G5C A11C G35A C42U was 0.02.
Take C10A C13A C31G U38C: the self-cleavage turned out to be 0.05.
G1U C13U C23G G29A U34A: the self-cleavage came to 0.06.
Then G27U C31U A39G C46A, with 0.15; and G19A G21U U34A, with 0.1.
In the case of A16C G17U U38A C46G, the self-cleavage turned out to be 0.04.
With G1A G36U G40U, the self-cleavage was 0.07.
In the case of G1U C13A A14G G36U, the self-cleavage came to 0.03.
Take G19A U32A G44A: the self-cleavage was 0.11.
Then C13G G21U G22C, with 0.12.
Then G2C C10A G19A G27U G36A, with 0; and G1A C13G U20G G22U A25C, with 0.13.
Take C3A G5C U34A: the self-cleavage was determined as 0.12.
The value for C10A G17A C45U was 0.05.
Then U9A A14C C23U A26U C45A, with 0.09; and G2U C13G A26U C42U, with 0.01; and C15U G33A G35C C37U U38C, with 0.02.
Regarding G19A G35U G44A, the self-cleavage is 0.15.
The value for C15G U32A U38C was 0.01; that for A14U A24U G33C C45U was 0.01.
The value for C8A U20A C42U was 0.04.
As to C8U G30U A39C, the self-cleavage amounted to 0.19.
For the variant C10U G17C G35U, the self-cleavage came to 0.04.
The value for C3U A6U C46G was 0.41; that for A26G G27C G30C G40C C42A was 0.03.
For G2A C18U U34G, the self-cleavage was determined as 0.14.
As for G2A U9C C37A, the self-cleavage was 0.01.
In the case of C3A C8U C15A G22C A25G A39U, the self-cleavage was determined as 0.69.
As to G5U C8A C13U A16G U20G G36C, the self-cleavage was 0.01.
For A16C U28C G35A C46U, the self-cleavage came to 0.17.
Take A4G A16G G17C: the self-cleavage was determined as 0.21.
Then G1U A6G G7A A39C, with 0.09; and C3G A4G A12G C13A, with 0.1.
Then G19U G40U U43G, with 0.5; and C3G C13U G19C G30C, with 0.39; and C15U C18A G19C G44C, with 0.04.
Regarding U34C G35U C45U, the self-cleavage came out at 0.03.
The value for G21U C31A C42G was 0.05; that for G19U U32A A41U U43A C45U was 0.03.
